# Experimental data reported in US20220339143A1, “TAK-925 FOR USE IN TREATING NARCOLEPSY” (Takeda Pharmaceutical Company Limited, priority 2019, published 2022).
# This continues a long series; more values of the same kind are listed elsewhere.
# Test: Single dose PK in healthy subjects (Cohorts 1, 2, S1 and S2), plasma
# Assay type: in vivo, human
# Protocol: This study investigates (i) the safety and tolerability of Compound A (methyl (2R,3S)-3-((methylsulfonyl)amino)-2-(((cis-4-phenylcyclohexyl)oxy)methyl)piperidine-1-carboxylate) when a single dose given as a 9 hour continuous IV infusion is administered to healthy adults, healthy elderly subjects and patients with narcolepsy type 1 (NT1); (ii) the pharmacokinetics of Compound A when a single dose given as a 9 hour continuous IV infusion is administered to healthy adults, healthy elderly subjects and patients with narcolepsy type 1; and (iii) the pharmacodynamics (PD) effects of Compound A, primarily by evaluation of the sleep latency on MWT when a single dose given as a 9 hour continuous IV infusion is administered to patients with narcolepsy type 1.
# Pharmacokinetics: Concentrations of Compound A in plasma, and CSF, and pharmacokinetics parameters.
# On average, the time to reach the plateau appeared to be approximately 3 to 4 hours after the start of infusion. […] After switching off the IV infusion, Compound A plasma concentrations declined rapidly and in a biphasic manner with a mean terminal disposition phase t1/2z ranging approximately from 3.4 to 5.1 hours across all doses. […] Table 5 provides a summary of plasma concentrations of Compound A after a single IV infusion in healthy subjects. Table 6 provides a summary of pharmacokinetic parameters of Compound A after a single IV infusion in healthy subjects.
# [1] = 28 mg, 3 hr After End of Infusion
# [2] = 28 mg, 4 hr After End of Infusion
# [3] = 28 mg, 6 hr After End of Infusion
# [4] = 28 mg, 10 hr After End of Infusion
# [5] = 28 mg, 15 hr After End of Infusion
# [6] = 56 mg, 0.33 hr After End of Infusion
# [7] = 56 mg, 0.5 hr After End of Infusion
# [8] = 56 mg, 0.75 hr After End of Infusion
# [9] = 56 mg, 1 hr After End of Infusion
# [10] = 56 mg, 1.5 hr After End of Infusion
# [11] = 56 mg, 2 hr After End of Infusion
# [12] = 56 mg, 3 hr After End of Infusion
# [13] = 56 mg, 4 hr After End of Infusion
# [14] = 56 mg, 6 hr After End of Infusion
# [15] = 56 mg, 10 hr After End of Infusion
# [16] = 56 mg, 15 hr After End of Infusion
# [17] = 112 mg, 0.33 hr After End of Infusion
# [18] = 112 mg, 0.5 hr After End of Infusion
# [19] = 112 mg, 0.75 hr After End of Infusion
# [20] = 112 mg, 1 hr After End of Infusion
# [21] = 112 mg, 1.5 hr After End of Infusion
# [22] = 112 mg, 2 hr After End of Infusion
compound,measurement,setting,value
"COC(=O)N1CCC[C@H](NS(C)(=O)=O)[C@@H]1CO[C@H]1CC[C@@H](c2ccccc2)CC1 [Compound A, methyl (2R,3S)-3-((methylsulfonyl)amino)-2-(((cis-4-phenylcyclohexyl)oxy)methyl)piperidine-1-carboxylate]","Plasma concentration, Mean",[1],8.746 ng/mL
same,"Plasma concentration, Median",[1],8.410 ng/mL
same,"Plasma concentration, Minimum",[1],5.23 ng/mL
same,"Plasma concentration, Q1",[1],7.640 ng/mL
same,"Plasma concentration, Q3",[1],9.050 ng/mL
same,"Plasma concentration, Maximum",[2],10.8 ng/mL
same,"Plasma concentration, Mean",[2],7.458 ng/mL
same,"Plasma concentration, Median",[2],7.600 ng/mL
same,"Plasma concentration, Minimum",[2],5.09 ng/mL
same,"Plasma concentration, Q1",[2],6.020 ng/mL
same,"Plasma concentration, Q3",[2],7.780 ng/mL
same,"Plasma concentration, Maximum",[3],5.79 ng/mL
same,"Plasma concentration, Mean",[3],3.948 ng/mL
same,"Plasma concentration, Median",[3],3.510 ng/mL
same,"Plasma concentration, Minimum",[3],2.34 ng/mL
same,"Plasma concentration, Q1",[3],3.040 ng/mL
same,"Plasma concentration, Q3",[3],5.060 ng/mL
same,"Plasma concentration, Maximum",[4],3.87 ng/mL
same,"Plasma concentration, Mean",[4],2.510 ng/mL
same,"Plasma concentration, Median",[4],2.440 ng/mL
same,"Plasma concentration, Minimum",[4],1.67 ng/mL
same,"Plasma concentration, Q1",[4],1.810 ng/mL
same,"Plasma concentration, Q3",[4],2.760 ng/mL
same,"Plasma concentration, Maximum",[5],2.58 ng/mL
same,"Plasma concentration, Mean",[5],1.241 ng/mL
same,"Plasma concentration, Median",[5],1.120 ng/mL
same,"Plasma concentration, Minimum",[5],0.402 ng/mL
same,"Plasma concentration, Q1",[5],0.8820 ng/mL
same,"Plasma concentration, Q3",[5],1.220 ng/mL
same,"Plasma concentration, Maximum","28 mg, Predose",0.00 ng/mL
same,"Plasma concentration, Mean","28 mg, Predose",0.000 ng/mL
same,"Plasma concentration, Median","28 mg, Predose",0.000 ng/mL
same,"Plasma concentration, Minimum","28 mg, Predose",0.00 ng/mL
same,"Plasma concentration, Q1","28 mg, Predose",0.000 ng/mL
same,"Plasma concentration, Q3","28 mg, Predose",0.000 ng/mL
same,"Plasma concentration, Maximum",[6],73.8 ng/mL
same,"Plasma concentration, Q3",[6],56.20 ng/mL
same,"Plasma concentration, Maximum",[7],69.4 ng/mL
same,"Plasma concentration, Q3",[7],53.10 ng/mL
same,"Plasma concentration, Maximum",[8],59.6 ng/mL
same,"Plasma concentration, Q3",[8],50.40 ng/mL
same,"Plasma concentration, Maximum",[9],57.0 ng/mL
same,"Plasma concentration, Q3",[9],49.50 ng/mL
same,"Plasma concentration, Maximum",[10],48.3 ng/mL
same,"Plasma concentration, Q3",[10],35.00 ng/mL
same,"Plasma concentration, Maximum",[11],34.6 ng/mL
same,"Plasma concentration, Median",[11],20.20 ng/mL
same,"Plasma concentration, Q3",[11],24.20 ng/mL
same,"Plasma concentration, Maximum",[12],27.5 ng/mL
same,"Plasma concentration, Mean",[12],18.22 ng/mL
same,"Plasma concentration, Median",[12],18.30 ng/mL
same,"Plasma concentration, Minimum",[12],10.9 ng/mL
same,"Plasma concentration, Q1",[12],13.90 ng/mL
same,"Plasma concentration, Q3",[12],20.40 ng/mL
same,"Plasma concentration, Maximum",[13],23.5 ng/mL
same,"Plasma concentration, Mean",[13],14.62 ng/mL
same,"Plasma concentration, Median",[13],14.60 ng/mL
same,"Plasma concentration, Minimum",[13],8.12 ng/mL
same,"Plasma concentration, Q1",[13],11.20 ng/mL
same,"Plasma concentration, Q3",[13],15.70 ng/mL
same,"Plasma concentration, Maximum",[14],16.4 ng/mL
same,"Plasma concentration, Mean",[14],8.382 ng/mL
same,"Plasma concentration, Median",[14],7.300 ng/mL
same,"Plasma concentration, Minimum",[14],4.44 ng/mL
same,"Plasma concentration, Q1",[14],6.650 ng/mL
same,"Plasma concentration, Q3",[14],8.200 ng/mL
same,"Plasma concentration, Maximum",[15],11.0 ng/mL
same,"Plasma concentration, Mean",[15],4.343 ng/mL
same,"Plasma concentration, Median",[15],3.370 ng/mL
same,"Plasma concentration, Minimum",[15],2.21 ng/mL
same,"Plasma concentration, Q1",[15],2.320 ng/mL
same,"Plasma concentration, Q3",[15],3.790 ng/mL
same,"Plasma concentration, Maximum",[16],5.07 ng/mL
same,"Plasma concentration, Mean",[16],1.885 ng/mL
same,"Plasma concentration, Median",[16],1.510 ng/mL
same,"Plasma concentration, Minimum",[16],0.767 ng/mL
same,"Plasma concentration, Q1",[16],0.8930 ng/mL
same,"Plasma concentration, Q3",[16],1.560 ng/mL
same,"Plasma concentration, Maximum","56 mg, Predose",0.00 ng/mL
same,"Plasma concentration, Mean","56 mg, Predose",0.000 ng/mL
same,"Plasma concentration, Median","56 mg, Predose",0.000 ng/mL
same,"Plasma concentration, Minimum","56 mg, Predose",0.00 ng/mL
same,"Plasma concentration, Q1","56 mg, Predose",0.000 ng/mL
same,"Plasma concentration, Q3","56 mg, Predose",0.000 ng/mL
same,"Plasma concentration, Maximum",[17],127 ng/mL
same,"Plasma concentration, Mean",[17],104.7 ng/mL
same,"Plasma concentration, Median",[17],105.5 ng/mL
same,"Plasma concentration, Minimum",[17],87.1 ng/mL
same,"Plasma concentration, Q1",[17],92.10 ng/mL
same,"Plasma concentration, Q3",[17],111.0 ng/mL
same,"Plasma concentration, Maximum",[18],113 ng/mL
same,"Plasma concentration, Mean",[18],95.03 ng/mL
same,"Plasma concentration, Median",[18],94.85 ng/mL
same,"Plasma concentration, Minimum",[18],78.0 ng/mL
same,"Plasma concentration, Q1",[18],86.50 ng/mL
same,"Plasma concentration, Q3",[18],103.0 ng/mL
same,"Plasma concentration, Maximum",[19],94.1 ng/mL
same,"Plasma concentration, Mean",[19],81.02 ng/mL
same,"Plasma concentration, Median",[19],83.95 ng/mL
same,"Plasma concentration, Minimum",[19],66.3 ng/mL
same,"Plasma concentration, Q1",[19],72.40 ng/mL
same,"Plasma concentration, Q3",[19],85.40 ng/mL
same,"Plasma concentration, Maximum",[20],89.2 ng/mL
same,"Plasma concentration, Mean",[20],73.08 ng/mL
same,"Plasma concentration, Median",[20],71.55 ng/mL
same,"Plasma concentration, Minimum",[20],62.8 ng/mL
same,"Plasma concentration, Q1",[20],64.10 ng/mL
same,"Plasma concentration, Q3",[20],79.30 ng/mL
same,"Plasma concentration, Maximum",[21],68.9 ng/mL
same,"Plasma concentration, Mean",[21],58.00 ng/mL
same,"Plasma concentration, Median",[21],59.00 ng/mL
same,"Plasma concentration, Minimum",[21],44.9 ng/mL
same,"Plasma concentration, Q1",[21],51.50 ng/mL
same,"Plasma concentration, Q3",[21],64.70 ng/mL
same,"Plasma concentration, Maximum",[22],53.9 ng/mL
same,"Plasma concentration, Mean",[22],42.08 ng/mL
same,"Plasma concentration, Median",[22],42.50 ng/mL
same,"Plasma concentration, Minimum",[22],31.4 ng/mL
